About 230 (0.21%) of roughly 110,000 compounds showed an effect of 50% or more. The list shows a part of the results.
target: DPAP1 (Plasmodium falciparum, UniProt Q8IIJ9); assay: primary screen, percent inhibition; read by cleavage of a fluorogenic dipeptide substrate; higher = more effect of the substance; parameters: species or system P. falciparum D10 trophozoite lysates; single well
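Also: 30 min substrate incubation versus DMSO and 10 µM JCP410 controls.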

Chain of DPAP1 (Q8IIJ9 whole entry, looked up): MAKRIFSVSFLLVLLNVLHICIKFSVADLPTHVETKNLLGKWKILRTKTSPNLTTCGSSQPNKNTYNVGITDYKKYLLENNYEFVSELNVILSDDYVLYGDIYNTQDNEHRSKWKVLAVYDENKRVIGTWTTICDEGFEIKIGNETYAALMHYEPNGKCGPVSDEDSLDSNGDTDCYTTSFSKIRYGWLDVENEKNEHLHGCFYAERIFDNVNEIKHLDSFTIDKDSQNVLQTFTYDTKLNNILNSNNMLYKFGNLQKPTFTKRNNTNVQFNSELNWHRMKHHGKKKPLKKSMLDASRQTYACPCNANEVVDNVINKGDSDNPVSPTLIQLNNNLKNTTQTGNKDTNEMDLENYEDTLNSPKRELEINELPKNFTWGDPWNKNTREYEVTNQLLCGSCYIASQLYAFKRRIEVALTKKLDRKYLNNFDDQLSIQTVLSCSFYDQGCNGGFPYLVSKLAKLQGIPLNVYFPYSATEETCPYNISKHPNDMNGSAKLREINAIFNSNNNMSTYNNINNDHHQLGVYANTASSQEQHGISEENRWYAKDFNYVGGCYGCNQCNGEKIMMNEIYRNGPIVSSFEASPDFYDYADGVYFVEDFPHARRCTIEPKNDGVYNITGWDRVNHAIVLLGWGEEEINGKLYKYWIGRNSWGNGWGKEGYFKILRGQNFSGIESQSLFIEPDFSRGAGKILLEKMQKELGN

Point of comparison: `COc1ccccc1N1CCN(S(=O)(=O)c2ccc(Cl)cc2)CC1`, “% Inhibition @ 10 uM” value -1.38%. Against it:
- Cc1ccc2ncc3c(-c4ccccc4)[nH]nc3c2c1 — lower, -13.5%
- O=C(N/C(=C/C=C/c1ccccc1)C(=O)N1CCOCC1)c1ccccc1 — lower, -4.67%
- CC(=O)c1ccc(Oc2cc(-c3ccccc3)nc(-c3ccccc3)n2)cc1 — lower, -3.27%
- COCCn1c(C)cc(/C=C2/NC(=O)N(c3ccc(Cl)cc3)C2=O)c1C — higher, 3.32%
- COc1ccc(C2(N3CCC4(CC3)OCCO4)C(=O)c3ccccc3C2=O)cc1 — higher, 3.37%
- Cn1c2c(c(=O)n(C)c1=O)C(c1ccc(O)c(O)c1)C1C(=O)c3ccccc3C1=N2 (stereo not shown) — higher, -1.37%
- O=C(Nc1cccc2nonc12)C(F)(F)F — higher, 0.0345%
- O=C(NCCCn1ccnc1)Nc1cccc(Cl)c1 — lower, -5.14%
- CCN1CCC(N2CCN(c3ccccc3)CC2)CC1 — higher, 1.83%
- Cc1cc(C(=O)N2CCCC2)c2c(C)nn(-c3ccccc3)c2n1 — higher, 2.12%
- Cc1cccc(OCCCN2CCCCC2)c1C — lower, -3.03%
- COc1ccc(C2=NN(c3ccc(Cl)cc3)C(c3cccs3)C2)cc1 (stereo not shown) — higher, 5.06%
- Cc1ccc(NC(=O)c2ccccc2Cl)c([N+](=O)[O-])c1 — higher, 1.91%
- CC1(C)CC(=O)C2=C(C1)N(Cc1ccccc1)CN(Cc1ccco1)C2 — higher, 2.31%
- C=CCO/C(O)=C1\C(C)=Nc2nnnn2C1c1cc(Br)ccc1OC (stereo not shown) — higher, 6.36%
- CCC1CCc2c(sc(NC(=O)C3CCC3)c2C#N)C1 (stereo not shown) — lower, -2.8%
- CCOC(=O)c1c(C)n(-c2ccccc2C)c2ccc(OC)cc12 — lower, -2.13%
- C=CCN1C(=O)S/C(=C\c2ccc(N3CCOCC3)cc2C)C1=O — lower, -1.51%
- CC(C)c1cc(C(C)C)c(S(=O)(=O)NCCO)c(C(C)C)c1 — higher, 6.6%
- O=C(Cc1cccc2ccccc12)N1CCN(S(=O)(=O)c2ccc(F)cc2)CC1 — lower, -3.21%
- Cc1ccc(-c2cc(-c3ccc(Cl)cc3)[nH]n2)c(O)c1 — lower, -1.82%
- O=C(NCc1ccco1)Nc1ccc(Cl)cc1 — lower, -5.51%
- N#Cc1c(NC(=O)CCn2cnc3ccccc3c2=O)sc2c1CCCC2 — higher, 4.33%
- C=CCNC(=O)c1ccccc1NC(=O)c1ccc(CN2CCOCC2)cc1 — lower, -2.67%
- CCOc1ccc(N(CC(=O)Nc2ccccc2C(F)(F)F)S(C)(=O)=O)cc1 — higher, 4.57%
- O=C(C1=C(O)C(=O)N(c2ccccn2)C1c1cccnc1)c1ccc(Cl)cc1 (stereo not shown) — higher, 0.408%
- O=C(c1ccc(F)c(S(=O)(=O)N2CCOCC2)c1)N1c2ccccc2Sc2ccccc21 — lower, -3.14%

Reference: paper PMC6919601, “Identification of Plasmodium dipeptidyl aminopeptidase allosteric inhibitors by high throughput screening” (PLoS ONE, 2019)
